Like-named read-outs stand apart in the source and are kept apart here.
How the values were obtained:
Molt-4 cells [1] = assay: cells; conditions: Homo sapiens
RS4;11 cells [2] = conditions: read-out: Cellular activity (IC50, nM) RS4;11
Molt-4 cells [3] = conditions: read-out: Cellular activity (IC50, nM) Molt-4
RS4;11 cells [4] = assay: cells; conditions: Homo sapiens
[5] = MOLT-4, read-out: Cellular activity (IC50, nM) Molt-4
[6] = RS4-11, 48 h, read-out: Cellular activity (IC50, nM) RS4;11
[7] = RS4-11, 48 h, read-out: Cellular activity (IC50, nM) RS4, 11

Compound	IC50 (Molt-4 cells [1]; [5])	IC50 (RS4;11 cells [4]; [6])	also measured
CN1CCCC(c2ccccc2C2CCCN2c2ccc(-c3ccc(C(=O)NS(=O)(=O)c4ccc(NCC5CCOCC5)c([N+](=O)[O-])c4)c(Oc4cnc5[nH]ccc5c4)c3)cc2)C1 (single isomer, unassigned) [Example A117a, 3-((1H-pyrrolo[2,3-b]pyridin-5-yl)oxy)-4′-(2-(2-(1-methylpiperidin-3-yl)phenyl)pyrrolidin-1-yl)-N-((3-nitro-4-(((tetrahydro-2H-pyran-4-yl)methyl)amino)phenyl)sulfonyl)-[1,1′-biphenyl]-4-carboxamide]	8960 nM	–	IC50 (RS4;11 cells [2]): 11 nM
O=C(NS(=O)(=O)c1ccc(NCC2CCOCC2)c([N+](=O)[O-])c1)c1ccc(-c2ccc(N3CC(F)(F)CC3c3ccccc3C3CC3)cc2)cc1Oc1cnc2[nH]ccc2c1 (single isomer, unassigned) [Example A147b, (S or R)-3-((1H-pyrrolo[2,3-b]pyridin-5-yl)oxy)-4′-(2-(2-cyclopropylphenyl)-4,4-difluoropyrrolidin-1-yl)-N-((3-nitro-4-(((tetrahydro-2H-pyran-4-yl)methyl)amino)phenyl)sulfonyl)-[1,1′-biphenyl]-4-carboxamide]	–	–	IC50 (RS4;11 cells [2]): 4.9 nM
CCc1c(Cl)cccc1C1CCCN1C1CC2(CCN(c3ccc(C(=O)NS(=O)(=O)c4ccc(NCC5CCOCC5)c([N+](=O)[O-])c4)c(Oc4cnc5[nH]ccc5c4)c3)CC2)C1 (single isomer, unassigned) [Example F74a, (R or S)-2-((1H-pyrrolo[2,3-b]pyridin-5-yl)oxy)-4-(2-(2-(3-chloro-2-ethylphenyl)pyrrolidin-1-yl)-7-azaspiro[3.5]nonan-7-yl)-N-((3-nitro-4-(((tetrahydro-2H-pyran-4-yl)methyl)amino)phenyl)sulfonyl)benzamide]	7530 nM	–	IC50 (RS4;11 cells [2]): 30 nM
O=C(NS(=O)(=O)c1ccc(NCC2(F)CCOCC2)c([N+](=O)[O-])c1)c1ccc(-c2ccc(N3CCC[C@@H]3c3ccccc3C3CC3)cc2)cc1Oc1cnc2[nH]ccc2c1 [Example G94-R, (R)-3-((1H-pyrrolo[2,3-b]pyridin-5-yl)oxy)-4′-(2-(2-cyclopropylphenyl)pyrrolidin-1-yl)-N-((4-(((4-fluorotetrahydro-2H-pyran-4-yl)methyl)amino)-3-nitrophenyl)sulfonyl)-[1,1′-biphenyl]-4-carboxamide]	–	–	IC50 (Molt-4 cells [3]): 1940 nM
O=C(NS(=O)(=O)c1ccc(NCC2CCOCC2)c([N+](=O)[O-])c1)c1ccc(N2CCC3(CCC(N4CCC[C@H]4c4ccccc4C4CC4)C3)CC2)cc1Oc1cnc2[nH]ccc2c1 (single isomer, unassigned) [Example F39a, (S or R) 2-((1H-pyrrolo[2,3-b]pyridin-5-yl)oxy)-4-(2-((S)-2-(2-cyclopropylphenyl)pyrrolidin-1-yl)-8-azaspiro[4.5]decan-8-yl)-N-((3-nitro-4-(((tetrahydro-2H-pyran-4-yl)methyl)amino)phenyl)sulfonyl)benzamide]	> 10000 nM	–	IC50 (RS4;11 cells [2]): 14 nM
O=C(NS(=O)(=O)c1ccc(NCC2CCOCC2)c([N+](=O)[O-])c1)c1ccc(-c2ccc(N3CC(F)(F)CC3c3ccccc3C3CC3)cc2)cc1Oc1cnc2[nH]ccc2c1 (single isomer, unassigned) [Example A147a, (R or S)-3-((1H-pyrrolo[2,3-b]pyridin-5-yl)oxy)-4′-(2-(2-cyclopropylphenyl)-4,4-difluoropyrrolidin-1-yl)-N-((3-nitro-4-(((tetrahydro-2H-pyran-4-yl)methyl)amino)phenyl)sulfonyl)-[1,1′-biphenyl]-4-carboxamide]	–	–	IC50 (RS4;11 cells [2]): 24 nM
O=C(NS(=O)(=O)c1ccc(NCC2CCOCC2)c([N+](=O)[O-])c1)c1ccc(N2CCC3(CC2)CC(N2CCCC2c2ccccc2CO)C3)cc1Oc1cnc2[nH]ccc2c1 (stereo not drawn) [Example F71, 2-((1H-pyrrolo[2,3-b]pyridin-5-yl)oxy)-4-(2-(2-(2-(hydroxymethyl)phenyl)pyrrolidin-1-yl)-7-azaspiro[3.5]nonan-7-yl)-N-((3-nitro-4-(((tetrahydro-2H-pyran-4-yl)methyl)amino)phenyl)sulfonyl)benzamide]	> 10000 nM	1290 nM	–
CC1CCN(c2ccc(-c3ccc(C(=O)NS(=O)(=O)c4ccc(NCC5CCOCC5)c([N+](=O)[O-])c4)c(Oc4cnc5[nH]ccc5c4)c3)cc2)C1c1ccccc1C1CC1 (stereo not drawn) [Example A76, 3-((1H-pyrrolo[2,3-b]pyridin-5-yl)oxy)-4′-(2-(2-cyclopropylphenyl)-3-methylpyrrolidin-1-yl)-N-((3-nitro-4-(((tetrahydro-2H-pyran-4-yl)methyl)amino)phenyl)sulfonyl)-[1,1′-biphenyl]-4-carboxamide]	2520 nM	–	IC50 (RS4;11 cells [4]; [7]): 47 nM
Cc1ccccc1C1CCCCCN1C1CC2(CCN(c3ccc(C(=O)NS(=O)(=O)c4ccc(NCC5CCOCC5)c([N+](=O)[O-])c4)c(Oc4cnc5[nH]ccc5c4)c3)CC2)C1 (stereo not drawn) [Example F94, 2-((1H-pyrrolo[2,3-b]pyridin-5-yl)oxy)-N-((3-nitro-4-(((tetrahydro-2H-pyran-4-yl)methyl)amino)phenyl)sulfonyl)-4-(2-(2-(o-tolyl)azepan-1-yl)-7-azaspiro[3.5]nonan-7-yl)benzamide]	> 10000 nM	32 nM	–
COC(c1ccccc1C1CC1)C1CCCN1C1CC=C(c2ccc(C(=O)NS(=O)(=O)c3ccc(NCC4CCOCC4)c([N+](=O)[O-])c3)c(Oc3cnc4[nH]ccc4c3)c2)CC1 (stereo not drawn) [Example C183, 3-((1H-pyrrolo[2,3-b]pyridin-5-yl)oxy)-4′-(2-((2-cyclopropylphenyl)(methoxy)methyl)pyrrolidin-1-yl)-N-((3-nitro-4-(((tetrahydro-2H-pyran-4-yl)methyl)amino)phenyl)sulfonyl)-2′,3′,4′,5′-tetrahydro-[1,1′-biphenyl]-4-carboxamide]	> 10000 nM	–	IC50 (RS4;11 cells [4]; [7]): 187 nM
O=C(NS(=O)(=O)c1ccc(NCC2CCOCC2)c([N+](=O)[O-])c1)c1ccc(-c2ccc(N3CCCN3c3ccccc3C3CC3)cc2)cc1Oc1cnc2[nH]ccc2c1 [Example A156, 3-((1H-pyrrolo[2,3-b]pyridin-5-yl)oxy)-4′-(2-(2-cyclopropylphenyl)pyrazolidin-1-yl)-N-((3-nitro-4-(((tetrahydro-2H-pyran-4-yl)methyl)amino)phenyl)sulfonyl)-[1,1′-biphenyl]-4-carboxamide]	4400 nM	142 nM	–
O=C(NS(=O)(=O)c1ccc(NCC2CCOCC2)c([N+](=O)[O-])c1)c1ccc(C2=CCC(N3CCCC3c3cc(C4CC4)ccc3F)CC2)cc1Oc1cnc2[nH]ccc2c1 (stereo not drawn) [Example C168, 3-((1H-pyrrolo[2,3-b]pyridin-5-yl)oxy)-4′-(2-(5-cyclopropyl-2-fluorophenyl)pyrrolidin-1-yl)-N-((3-nitro-4-(((tetrahydro-2H-pyran-4-yl)methyl)amino)phenyl)sulfonyl)-2′,3′,4′,5′-tetrahydro-[1,1′-biphenyl]-4-carboxamide]	> 10000 nM	–	IC50 (RS4;11 cells [4]; [7]): 363 nM
O=C(NS(=O)(=O)c1ccc(NCC2(F)CCC(O)CC2)c([N+](=O)[O-])c1)c1ccc(C2=CCC(N3CCC[C@H]3c3ccccc3C3CC3)CC2)cc1Oc1cnc2[nH]ccc2c1 (stereo partly drawn) [Example G109]	> 10000 nM	–	IC50 (RS4;11 cells [4]; [7]): 24 nM
O=C(NS(=O)(=O)c1ccc(NCC2CCOCC2)c([N+](=O)[O-])c1)c1ccc(N2CCC3(CC2)CC(N2CC4(CC4)CC2c2ccccc2C2CC2)C3)cc1Oc1cnc2[nH]ccc2c1 (stereo not drawn) [Example F81, 2-((1H-pyrrolo[2,3-b]pyridin-5-yl)oxy)-4-(2-(6-(2-cyclopropylphenyl)-5-azaspiro[2.4]heptan-5-yl)-7-azaspiro[3.5]nonan-7-yl)-N-((3-nitro-4-(((tetrahydro-2H-pyran-4-yl)methyl)amino)phenyl)sulfonyl)benzamide]	1700 nM	11 nM	–
O=C(NS(=O)(=O)c1ccc(NCC2CCOCC2)c([N+](=O)[O-])c1)c1ccc(N2CCC3(CC2)CC(N2CC(F)(F)CC2c2ccccc2C2CC2)C3)cc1Oc1cnc2[nH]ccc2c1 (stereo not drawn) [Example F83, 2-((1H-pyrrolo[2,3-b]pyridin-5-yl)oxy)-4-(2-(2-(2-cyclopropylphenyl)-4,4-difluoropyrrolidin-1-yl)-7-azaspiro[3.5]nonan-7-yl)-N-((3-nitro-4-(((tetrahydro-2H-pyran-4-yl)methyl)amino)phenyl)sulfonyl)benzamide]	4830 nM	60 nM	–
CCc1ccccc1[C@@H]1CCCN1C1CC2(CCN(c3ccc(C(=O)NS(=O)(=O)c4ccc(NC[C@H]5CC[C@](C)(O)CC5)c([N+](=O)[O-])c4)c(Oc4cnc5[nH]ccc5c4)c3)CC2)C1 [Example F26, 2-((1H-pyrrolo[2,3-b]pyridin-5-yl)oxy)-4-(2-((S)-2-(2-ethylphenyl)pyrrolidin-1-yl)-7-azaspiro[3.5]nonan-7-yl)-N-((4-((((1r,4r)-4-hydroxy-4-methylcyclohexyl)methyl)amino)-3-nitrophenyl)sulfonyl)benzamide]	> 10000 nM	1.9 nM	IC50 (RS4;11 cells [4]; RS4-11, read-out: Celluclar activity (IC50, nM) RS 4, 11): 1.9 nM; IC50 (Molt-4 cells [1]; MOLT-4, read-out: Celluclar activity (IC50, nM) Molt-4): > 10000 nM
CC1(C)CC(CNc2ccc(S(=O)(=O)NC(=O)c3ccc(N4CCC5(CC4)CC(N4CCC[C@H]4c4ccccc4C4CC4)C5)cc3Oc3cnc4[nH]ccc4c3)cc2[N+](=O)[O-])CC(C)(C)O1 [Example F121, (S)-2-((1H-pyrrolo[2,3-b]pyridin-5-yl)oxy)-4-(2-(2-(2-cyclopropylphenyl)pyrrolidin-1-yl)-7-azaspiro[3.5]nonan-7-yl)-N-((3-nitro-4-(((2,2,6,6-tetramethyltetrahydro-2H-pyran-4-yl)methyl)amino)phenyl)sulfonyl)benzamide]	4580 nM	10 nM	–

From US11420968B2 (priority 2018, dated 2022)
